According to the RNAGym collection of RNA variant scans (doi:10.7554/elife.90254):
Read counts are not given, so values of variants with three or more changes are uncertain.

B1: LINE1-mini (parent)
chain: GGCAGAGCUCAACACAGCGUGGCAAAGUGGCUGUGGCUAGACUGCC

Variants of: B1
Assay: self-cleavage, relative activity (ratio to wild type); higher = more cleavage; in vitro, sequencing; the parent is a self-cleaving ribozyme

Row | Variant | self-cleavage
1 | GGCGGAGCUCAACAUAGCGCGGCAAUGUGGCUGUGGCUAGACUGCC [A4G C15U U20C A26U] | 0
2 | GGCGGAGCUCAACAUAGCGUGGCAAAGUGGCGGUGGCUAGACUGCC [A4G C15U U32G] | 0.04
3 | GGCGGAGCUCAACACAGAGUGGCAAAGUGGCUGUGGCUGGACUGCC [A4G C18A A39G] | 0.01
4 | GGCGGAGCUCAACACAGGGUGGCAAAGUGCCUGAGGCUAGACUUCC [A4G C18G G30C U34A G44U] | 0.02
5 | GGCGGAGCUCAACACAGGGUGGCAAAGUGUCGGUGCCGAGACUGGC [A4G C18G G30U U32G G36C U38G C45G] | 0.14
6 | GGCGGAGCUCAACACAGGGGAGCAAAGUGCCUGUGGCUCGACUGCC [A4G C18G U20G G21A G30C A39C] | 0.07
7 | GGCGGAGCUCAACACAGUAUGGCAAAGUGGCUGUGGCUAGACAGUC [A4G C18U G19A U43A C45U] | 0.05
8 | GGCGGAGCUCAACACAGUGUGCCAAAGUGGCUGUGGCUAGACUGCC [A4G C18U G22C] | 0.13
9 | GGCGGAGCUCAACACAGUGUGGCAAAGUUGCUGCGGCUAGACUGAC [A4G C18U G29U U34C C45A] | 0.27
10 | GGCGGAGCUCAACACAGUGUGGCAAAGUGGCUGUCGCUAGAAUGCC [A4G C18U G35C C42A] | 0.04
11 | GGCGGAGCUCAACACAGUGGGGCCAAGUGUCUGUGGCUAGACUGCC [A4G C18U U20G A24C G30U] | 0.04
12 | GGCGGAGCUCAACACAGCGUGGAGAAGCGGCUGUAGCUAGACAGCC [A4G C23A A24G U28C G35A U43A] | 0.04
13 | GGCGGAGCUCAACACAGCGUGGAAAAGUGGAUGUGGCUAGACUGCC [A4G C23A C31A] | 0.54
14 | GGCGGAGCUCAACACAGCGUGGAAAAGCAGCUGUGGCUAGACUGCC [A4G C23A U28C G29A] | 0.13
15 | GGCGGAGCUCAACACAGCGUGGAAAAGUGGCUGUGGCUAGACGGCC [A4G C23A U43G] | 0
16 | GGCGGAGCUCAACACAGCGUGGGAAAGUGGCUGUGGCUAGACUGCA [A4G C23G C46A] | 0.12
17 | GGCGGAGCUCAACACAGCGUGGGAAAGUGUCUGUGGCUAGACUGCC [A4G C23G G30U] | 0.17
18 | GGCGGAGCUCAACACAGCGUGGUAUAGUGGCUGUGGAUAGACAGCC [A4G C23U A25U C37A U43A] | 0.01
19 | GGCGGAGCUCAACACAGCGUGGUAAGGUGGUUGUGGCUAGACUGCC [A4G C23U A26G C31U] | 0.56

Row | Variant | self-cleavage
20 | GGCGGAGCUCAACACAGCGUGGUAAAGUGGCUGUGGCUCGACUGCC [A4G C23U A39C] | 0
21 | GGCGGAGCUCAACACAGCGUGGUAAAGUGGCUGUGGCUGGACUGCC [A4G C23U A39G] | 0.22
22 | GGCGGAGCUCAACACAGCGUGGUAAAGUGGCUGUGGCUAGUCUGCC [A4G C23U A41U] | 0.65
23 | GGCGGAGCUCAACACAGCGUGGCAAAGUGGAUGUGGUUAGACUGCC [A4G C31A C37U] | 0.01
24 | GGCGGAGCUCAACACAGCGUGGCAAAGUGGGUGUGGCUCGACUGCC [A4G C31G A39C] | 0.07
25 | GGCGGAGCUCAACACAGCGUGGCAAAGUGGGUGUGGCUAAAAUGCC [A4G C31G G40A C42A] | 0.61
26 | GGCGGAGCUCAACACAGCGUGGCAAAGUGGUUGUGGAUAGACUGCC [A4G C31U C37A] | 0.05
27 | GGCGGAGCUCAACACAGCGUGGCAAAGUGGUUGUGGCUAGACUGCA [A4G C31U C46A] | 0.18
28 | GGCGGAGCUCAACACAGCGUGGCAAAGUGGUUGUUGCUAGACUGCC [A4G C31U G35U] | 0.03
29 | GGCGGAGCUCAACACAGCGUGGCAAAGUGGCUGUGGGUACACUGUC [A4G C37G G40C C45U] | 0.02
30 | GGCGGAGCUCAACACAGCGUGGCAAAGUGGCUGUGGUUAGCCUGCC [A4G C37U A41C] | 0.02
31 | GGCGGAGCUCAACACAGCGUGGCAAAGUGGCUGUGGCUAGAAUGAC [A4G C42A C45A] | 0.08
32 | GGCGAUACUGAACACAGCGUGACAAUGUGGCUGUGGCUAGACUGCC [A4G G5A A6U G7A C10G G22A A26U] | 0.02
33 | GGCGAAGCUCAACACGGAGGGGCAAAGUGGCUGUGGCUAGACUGCA [A4G G5A A16G C18A U20G C46A] | 0.05
34 | GGCGAAGCUCAAUAAUGCGUGGCAAAGUGCCUGUGGCUAGACUGCC [A4G G5A C13U C15A A16U G30C] | 0.03
35 | GGCGAAUCUCAACACAGCGUGGCAAAGUGGCUGUGGGUAGACUGUC [A4G G5A G7U C37G C45U] | 0.01
36 | GGCGAAGCUCAACACAGCGUGGCAAAUUGGCUGUGGCUGGACUACC [A4G G5A G27U A39G G44A] | 0.04
37 | GGCGAAGCUCAACACAGCGUGGCAAAGUAGCUGUGGCUAGACUGCC [A4G G5A G29A] | 1.59
38 | GGCGAAGCUCAACACAGCGUGGCAAAGUGGCUGUGGCUAGACUUCC [A4G G5A G44U] | 0.24

Row | Variant | self-cleavage
39 | GGCGAAGCUCAACACAGCGUGGCAAAGUGGCCGUGGCUAGACUGCC [A4G G5A U32C] | 0.07
40 | GGCGCAGCUCAACGAAGCGUGGCAAAGUGGCUGUGGAUAGACUGCC [A4G G5C A14G C15A C37A] | 0.05
41 | GGCGCAGCUCAAUACAGCGUGGCAAAGUGGCUGUUGCGAGACUGCC [A4G G5C C13U G35U U38G] | 0.8
42 | GGCGCAGCUCAACAGAGUGUGGCAAAGUGGCUGUGGCUAGACUGCC [A4G G5C C15G C18U] | 0.04
43 | GGCGCAGCUCAACACAGCGUGGUAAAGUGGCUGUGGCUAGCCUGCC [A4G G5C C23U A41C] | 0.07
44 | GGCGCAGCUCAACACAGCGUGCCAAAGCGGCUGUGGUUAGACUGCC [A4G G5C G22C U28C C37U] | 0.02
45 | GGCGCAGCUCAACACAGCGUGGCAAAGUGUCUGUUGCUAGACUGUC [A4G G5C G30U G35U C45U] | 0.05
46 | GGCGUGACUCAACACAGCGUGGCAAAGCGGCUGUGGCUAGACUGCC [A4G G5U A6G G7A U28C] | 0.1
47 | GGCGUAGCUUAACACAGCGUGGCAAAGUGGCUGUGGCUUGACUGCC [A4G G5U C10U A39U] | 0.04
48 | GGCGUAGCUCAACACAGAGUGGCAAAGUGGCUGUGGCUAUACUGCU [A4G G5U C18A G40U C46U] | 0.03
49 | GGCGUAGCUCAACACAGCGUGGCAAAGUGGCUGUGGCUAGACUGUC [A4G G5U C45U] | 0.08
50 | GGCGUAGCUCAACACAGCGUGGCAAACUGGCUGUGGGCAGACUGCC [A4G G5U G27C C37G U38C] | 0.04
51 | GGCGUAGCUCAACACAGCGUGGCAAAGUAGCUGUGGAUAGACUGCC [A4G G5U G29A C37A] | 0.06
52 | GGCGUAGCUCAACACAGCGUGGCAAAGUGGCUGUGCCUAGACUGCC [A4G G5U G36C] | 0.07
53 | GGCGUAGCUCAACACAGCGUGGCAAAGUGGCUGAGGCUAGACGGCC [A4G G5U U34A U43G] | 0
54 | GGCGGAACUCAGCACAGAGUGGCAAAGUGGCUGUGGCUAGACUGCA [A4G G7A A12G C18A C46A] | 0.03
55 | GGCGGAACUCAAAACAGCGUGGCAAAGUGAAUGUCGCUAGACUGCC [A4G G7A C13A G30A C31A G35C] | 0.16
56 | GGCGGAACUCAACACAGCGUGGCAAAGUGGUUGUGGCUAGAAUCCC [A4G G7A C31U C42A G44C] | 0.02
